# Test results reported in US20220017583A1.
# Biological target: amyloid β (1-42) (UniProt P05067)
# Assay: trapping on beads, eluate by MALDI-TOF MS; amount of antigen needed for detection
# Chain of UniProt P05067 (P05067 672-713 limits assumed): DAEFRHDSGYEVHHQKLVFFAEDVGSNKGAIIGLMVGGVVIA
substance,measurement,value
6E10 IgG-protein G beads (antibody),Detection Limit (S/N ≥ 3),100 pg and 22.2 fmol [lines of one column]

# A number of entries come with more than one value. The list is limited to them. An entry can have further records. Results that share an entry appear to be repeats (runs, samples, wells or individuals).
